Measurements published in publication PMC5700166.
The entries are a selection whose mix differs from that of the whole data set. The list includes weakly bound sequences.

Columns and labels:
Experiment in all cases: protein-binding microarray (PBM)
Conditions in all cases: PBM: ~300 nM protein, 6 mM HEPES pH 7.8, 80 mM KCl, 0.5 mM EDTA, 0.5 mM EGTA, 6% glycerol, 35 ng/ul poly-dIdC, 1% milk, 1 h, room temperature; Ap Aiptasia and Nv Nematostella (sea anemones) / Co Capsaspora / Aq Amphimedon (sponge) / Dm Drosophila / Hu human; RHD is the Rel homology domain; high values mean tight binding; most listed sequences are background and not binding sites; double strand, one strand shown
[1] = biological target: T1, GST-Nv-NF-kB (Cys allele) (UniProt E5G601)
T1 sequence: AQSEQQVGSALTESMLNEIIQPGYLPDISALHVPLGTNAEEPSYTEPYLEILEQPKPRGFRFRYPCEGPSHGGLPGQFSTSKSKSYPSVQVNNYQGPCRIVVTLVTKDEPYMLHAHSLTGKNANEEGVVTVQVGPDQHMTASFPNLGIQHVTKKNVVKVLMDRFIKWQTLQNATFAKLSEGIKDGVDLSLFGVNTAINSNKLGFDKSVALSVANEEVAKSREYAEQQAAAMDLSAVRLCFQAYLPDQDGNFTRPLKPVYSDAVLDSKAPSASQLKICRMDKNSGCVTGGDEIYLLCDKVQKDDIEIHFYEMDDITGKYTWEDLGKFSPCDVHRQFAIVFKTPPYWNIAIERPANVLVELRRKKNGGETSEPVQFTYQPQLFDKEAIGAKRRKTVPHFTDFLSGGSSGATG

GST-Dm-Relish = biological target: T2, GST-Dm-Relish (UniProt Q94527)
T2 sequence: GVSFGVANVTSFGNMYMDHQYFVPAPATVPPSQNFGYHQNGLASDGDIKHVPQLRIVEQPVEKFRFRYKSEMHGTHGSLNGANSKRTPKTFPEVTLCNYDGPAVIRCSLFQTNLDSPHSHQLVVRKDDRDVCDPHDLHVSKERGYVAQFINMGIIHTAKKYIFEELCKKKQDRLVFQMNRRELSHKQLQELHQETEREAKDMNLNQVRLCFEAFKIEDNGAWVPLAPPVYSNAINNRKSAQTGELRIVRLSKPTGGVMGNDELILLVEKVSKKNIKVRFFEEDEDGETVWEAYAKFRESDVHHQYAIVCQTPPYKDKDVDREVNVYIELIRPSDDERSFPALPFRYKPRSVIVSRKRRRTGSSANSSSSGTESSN

GST-Aq-NF-kB = biological target: T3, GST-Aq-NF-kB (UniProt A9Y5G7)
T3 sequence: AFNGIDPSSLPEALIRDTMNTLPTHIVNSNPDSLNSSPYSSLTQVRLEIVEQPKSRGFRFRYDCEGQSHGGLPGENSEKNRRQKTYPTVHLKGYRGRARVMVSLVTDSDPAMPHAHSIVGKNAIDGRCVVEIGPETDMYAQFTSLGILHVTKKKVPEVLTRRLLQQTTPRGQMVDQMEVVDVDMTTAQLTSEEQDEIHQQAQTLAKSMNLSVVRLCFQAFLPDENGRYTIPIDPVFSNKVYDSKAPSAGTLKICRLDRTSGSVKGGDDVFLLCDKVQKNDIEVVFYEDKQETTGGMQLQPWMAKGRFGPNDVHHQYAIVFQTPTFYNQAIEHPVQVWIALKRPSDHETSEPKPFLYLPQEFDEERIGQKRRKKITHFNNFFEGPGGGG

GST-Co-NF-kB = biological target: T4, GST-Co-NF-kB (UniProt F1ARL5)
T4 sequence: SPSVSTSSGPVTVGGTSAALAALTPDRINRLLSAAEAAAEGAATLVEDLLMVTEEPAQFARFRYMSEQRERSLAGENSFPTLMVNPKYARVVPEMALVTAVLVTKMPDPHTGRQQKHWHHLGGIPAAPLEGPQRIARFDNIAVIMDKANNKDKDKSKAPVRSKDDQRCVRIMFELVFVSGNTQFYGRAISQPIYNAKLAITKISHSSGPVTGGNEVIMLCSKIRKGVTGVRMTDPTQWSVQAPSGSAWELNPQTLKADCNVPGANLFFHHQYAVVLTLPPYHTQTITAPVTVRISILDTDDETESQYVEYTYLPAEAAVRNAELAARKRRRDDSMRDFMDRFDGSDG

Sequence | binding signal [1] [z-score] | binding signal (GST-Dm-Relish) [z-score] | binding signal (GST-Aq-NF-kB) [z-score] | binding signal (GST-Co-NF-kB) [z-score]
CCGATTAACATCATAAGGGGTGTTGATGTTAATCGGGTCTTGATTCGCTTGACGCTGCTG | 0.956 | 0.81 | 1.91 | –
CCGATTAACATCAAAGGGGCTACTGATGTTAATCGGGTCTTGATTCGCTTGACGCTGCTG | 3.08 | 0.61 | 3.2 | 0.895
CCGATTAACATCAATTAGGTGGGTGATGTTAATCGGGTCTTGATTCGCTTGACGCTGCTG | 0.545 | 0.379 | 0.896 | –
CCGATTAACATCACAGTCCCCCCTGATGTTAATCGGGTCTTGATTCGCTTGACGCTGCTG | 5.07 | 4.6 | 4.63 | 5.62
CCGATTAACATCAAGGGAATCCCTGATGTTAATCGGGTCTTGATTCGCTTGACGCTGCTG | 6.1 | 9.2 | 6.63 | 2.83
CCGATTAACATCAGGATTACCCATGATGTTAATCGGGTCTTGATTCGCTTGACGCTGCTG | 2.65 | 2.52 | 3.19 | 1.67
CCGATTAACATCAGGGATTAACATGATGTTAATCGGGTCTTGATTCGCTTGACGCTGCTG | 0.829 | 4.89 | 1.83 | 0.41
CCGATTAACATCAATTTTCCCCGTGATGTTAATCGGGTCTTGATTCGCTTGACGCTGCTG | 8.12 | 4.87 | 6.2 | 11
CCGATTAACATCAAGTCCCCCCATGATGTTAATCGGGTCTTGATTCGCTTGACGCTGCTG | 4.07 | 4.21 | 4.39 | –
CCGATTAACATCACGGGATCCCCTGATGTTAATCGGGTCTTGATTCGCTTGACGCTGCTG | 4.81 | 9.23 | 5.41 | –
CCGATTAACATCAGGGAACCACCTGATGTTAATCGGGTCTTGATTCGCTTGACGCTGCTG | 5.68 | 9.5 | 6.96 | –
CCGATTAACATCAGGCGATTCCCTGATGTTAATCGGGTCTTGATTCGCTTGACGCTGCTG | 2.99 | 2.34 | 3.88 | –
CCGATTAACATCAGGGATTTCACTGATGTTAATCGGGTCTTGATTCGCTTGACGCTGCTG | 2.33 | 6.3 | 4.19 | 0.654
CCGATTAACATCATGGGGGGTAATGATGTTAATCGGGTCTTGATTCGCTTGACGCTGCTG | 3.18 | 2.79 | 3.56 | –
CCGATTAACATCAGGGAAAACTATGATGTTAATCGGGTCTTGATTCGCTTGACGCTGCTG | 5.55 | 1.67 | 4.07 | –
CCGATTAACATCATGGGGCATGCTGATGTTAATCGGGTCTTGATTCGCTTGACGCTGCTG | 0.431 | -0.308 | 1.06 | 0.141
CCGATTAACATCAATCAGCGGGGTGATGTTAATCGGGTCTTGATTCGCTTGACGCTGCTG | 0.524 | 0.589 | 0.992 | 2.43
CCGATTAACATCAGGAAAAACCCTGATGTTAATCGGGTCTTGATTCGCTTGACGCTGCTG | 5.86 | 6.52 | 7.68 | 0.801
CCGATTAACATCAGGAAGTCCCATGATGTTAATCGGGTCTTGATTCGCTTGACGCTGCTG | – | – | 4.99 | 0.513
CCGATTAACATCAGGAAGATCCCTGATGTTAATCGGGTCTTGATTCGCTTGACGCTGCTG | – | – | 5.44 | 0.37
CCGATTAACATCAGGGACTTCCATGATGTTAATCGGGTCTTGATTCGCTTGACGCTGCTG | – | – | 5.53 | -0.236
CCGATTAACATCAGGAAAAGCCCTGATGTTAATCGGGTCTTGATTCGCTTGACGCTGCTG | – | – | 4.95 | -0.498
CCGATTAACATCAGGGGAAGACCTGATGTTAATCGGGTCTTGATTCGCTTGACGCTGCTG | – | – | 7.72 | 5.23
CCGATTAACATCAATTCCCCCCATGATGTTAATCGGGTCTTGATTCGCTTGACGCTGCTG | – | – | 5.8 | 9.55
CCGATTAACATCACCCGGGAAACTGATGTTAATCGGGTCTTGATTCGCTTGACGCTGCTG | 2.39 | 1.11 | 2.32 | –
CCGATTAACATCACTTCCCCCCCTGATGTTAATCGGGTCTTGATTCGCTTGACGCTGCTG | – | – | 4.94 | 8
